# Source: PubChem BioAssay AID1346428 (National Center for Advancing Translational Sciences (NCATS), 2018)
# “And” between values parts separate entries of the source, which are not always exact repeats. Identical values can stand only once. In all, about 48,000 compounds went through this assay and about 1,200 (2.5%) were called active. Not shown: some 2% with an inconclusive outcome.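 How the source made its calls: active means activation of at least 60% and not above a set upper limit (about 1 call in 100 departs from these limits); inconclusive means activation of 40% to 60%, or above that upper limit; inactive means activation under 40%.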 This is one part of the list.
# Molecular target: Probable G-protein coupled receptor 32 (Homo sapiens) (UniProt O75388)
# Assay: qHTS for Agonists of Human Resolvin D1 Receptor DRV1; further: 0% is about no effect
# Conditions: CHO-K1 GPR32 beta-arrestin PathHunter luminescence, 90 min; at 76.9 µM; active compounds read high; zero percent set by DMSO-only wells
# Outline: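 Agonism was scored as beta-arrestin recruitment to ProLink-fused GPR32 in stably transfected CHO-K1 cells, giving a chemiluminescent beta-Gal signal; compounds were incubated 90 min at 37 °C.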
# Sequence of UniProt O75388 (O75388 whole entry, looked up): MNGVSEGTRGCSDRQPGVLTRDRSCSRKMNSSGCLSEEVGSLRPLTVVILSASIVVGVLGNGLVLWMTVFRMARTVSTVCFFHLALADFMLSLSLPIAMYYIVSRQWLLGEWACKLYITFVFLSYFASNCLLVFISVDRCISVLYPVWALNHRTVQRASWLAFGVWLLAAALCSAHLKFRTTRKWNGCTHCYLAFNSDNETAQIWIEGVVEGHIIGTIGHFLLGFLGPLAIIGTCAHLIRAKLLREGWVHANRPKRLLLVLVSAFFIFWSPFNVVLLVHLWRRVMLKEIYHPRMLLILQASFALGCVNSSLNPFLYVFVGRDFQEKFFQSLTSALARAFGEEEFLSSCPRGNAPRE
row,SMILES,activation
1,CC(=O)OC(C)C[N+](C)(C)C (stereo unspecified),inactive: -6.32% and inactive: 7.16%
2,CN(C)c1ccc(/C=C2\C(=O)Nc3ccccc32)cc1,inactive: -33.3%
3,Cc1ccccc1CNC(=O)CCSCc1cnn(-c2ccccc2)c1-n1cccc1,inactive: -13.7%
4,CCOC(=O)c1ccc(NC(=O)c2ccc(-c3cccc(Cl)c3C)o2)cc1,inactive: -6.56%
5,CCOc1ccc(CCNC(=O)c2cc3c(-c4ccccc4F)nn(C)c3s2)cc1OCC,inactive: 16%
6,COc1ccc(C2c3c(-c4ccc(F)cc4)n[nH]c3C(=O)N2c2ccccc2)cc1OC (stereo unspecified),inactive: 0.77%
7,Oc1c(Cl)cc(Cl)cc1Sc1cc(Cl)cc(Cl)c1O,active: 80.5%
8,O=c1c2oc3ccccc3c2ncn1Cc1ccc(Br)cc1,inactive: 3.59%
9,COc1ccc(C2c3c(oc4ccccc4c3=O)C(=O)N2c2nc(C)c(C)s2)cc1 (stereo unspecified),inactive: -4.34%
10,C=CCc1ccccc1OCC(O)CNC(C)C (stereo unspecified),inactive: -6.54% and inactive: -5%
11,CCC(=O)N1CCc2cc(S(=O)(=O)NC(C(=O)NCCc3ccc(C)cc3)C(C)C)ccc21 (stereo unspecified),inactive: -8.05%
12,CSc1cccc(NC(=O)CN(C)S(=O)(=O)c2ccc3c(c2)CCCN3C(C)=O)c1,inactive: 32.6%
13,CCCOc1cccc(C2c3c(oc4cc(C)c(C)cc4c3=O)C(=O)N2CCCN2CCOCC2)c1 (stereo unspecified),inactive: 6.85%
14,CCOc1ccccc1C(=O)N1CCCCC1CCN1CCOCC1 (stereo unspecified),inactive: -4.6%
15,Cc1ccc(-c2nc3cc(NC(=O)c4cc(Br)ccc4Cl)ccc3o2)cc1,inactive: -4.52%
16,COCc1cc(C)n(CC(=O)Nc2cccc(C(C)=O)c2)c(=O)c1C#N,inactive: 12%
17,Cc1ccc(C)c(C(=O)CSc2nc3cc(C(=O)NC4CCCC4)ccc3c(=O)n2CC2CCCO2)c1 (stereo unspecified),inactive: -2.99%
18,Cc1ccc(-c2n[nH]c3c2C(c2cccs2)N(c2ccc(Cl)cc2)C3=O)cc1 (stereo unspecified),inactive: 0.874%
19,CC(C)CCNC(=O)c1ccc2c(c1)N(C)C(=O)c1ccccc1S2,inactive: -12.3%
20,CC1CCN(S(=O)(=O)c2cn(CC(=O)Nc3ccc(F)cc3)c(=O)c3ccccc23)CC1,inactive: -16.8%
21,COc1ccc(N2CCN(Cc3nc(-c4ccc(C)cc4)no3)CC2)cc1,inactive: 6.05%
22,CCOc1cc2[nH]c(=O)n(CCCCCC(=O)NC(C)CC)c(=O)c2cc1OCC (stereo unspecified),inactive: -1.31%

row,SMILES,activation
1,CC(C)c1nn2c(=O)cc(COC(=O)c3ccccc3Cl)nc2s1,inactive: -18.2%
2,O=C(O)CCn1ccc2cc(S(=O)(=O)N3CCCCC3)ccc21,inactive: -14.8%
3,COc1ccc(Cl)cc1NC(=O)CCCS(=O)(=O)c1nc(-c2ccc(OC)c(OC)c2)cc(C(F)(F)F)n1,inactive: -37.9%
4,CCn1cc2nc(SCc3cccc(F)c3)n(CCc3ccccc3)c(=O)c2n1,inactive: -11.2%
5,CCC(Cc1ccccc1)NC(=O)Cn1ncc2c3ccccc3n(Cc3ccc(F)cc3)c2c1=O (stereo unspecified),inactive: -17.1%
6,Cc1nnc(NC(=O)CSCc2cc(=O)c3ccc(C)c(C)c3[nH]2)s1,inactive: -12.4%
7,Cc1cc(C)n2c(Nc3cccc(C(F)(F)F)c3)c(-c3ccsc3)nc2n1,inactive: -25.6%
8,COc1ccc(-c2csc(-c3c(N)c(C(=O)c4ccccc4)n4ccccc34)n2)cc1,inactive: -11%
9,O=C(NCc1ccccc1Cl)C1CCN(c2ncnc3c2nc2n3CCCCC2)CC1,inactive: 4.18%
10,Cc1ccc2oc(=O)c3cc(C(=O)Nc4cccc(C#N)c4)sc3c2c1,inactive: 2.58%
11,Cc1ccc(-n2nc3c(N4CCC(C(=O)NCCC(C)C)CC4)nnc(C)c3c2C)cc1,inactive: -5.57%
12,CC(C)c1ccc(S(=O)(=O)c2cnc(SCC(=O)Nc3ccc(F)cc3F)nc2N)cc1,inactive: 38%
13,COc1ccc(NC(=O)c2[nH]nc3c2CSc2ccccc2-3)c(OC)c1,inactive: -0.161%
14,CCOc1ccccc1NC(=O)c1nnn(CC(=O)Nc2ccccc2CC)c1N,inactive: -2.62%
15,Cc1cc(C)cc(-n2ccnc2SCC(=O)Nc2ccc(C)c(Cl)c2)c1,inactive: -4.55%
16,CCC(=O)N1c2ccccc2CC1C(=O)NCCc1ccc(Cl)cc1 (stereo unspecified),inactive: -2.08%
17,O=C(Cn1nnnc1-c1ccccc1F)Nc1ccc(F)c(F)c1,inactive: 12.3%
18,O=C(CN1CCN(c2ccc(Cl)cc2)CC1)Nc1ccc(F)c(F)c1,inactive: -6.96%
19,CCCCOC(=O)c1ccc(NC(=O)/C(C#N)=C/c2ccc(C)o2)cc1,inactive: 3.96%
20,C[C@H]1c2cccc(O)c2C(O)=C2C(=O)[C@]3(O)C(O)=C(C(N)=O)C(=O)[C@@H](N(C)C)[C@@H]3[C@@H](O)[C@@H]21,inactive: 6.82% and inactive: 11.4%
21,CCCCNS(=O)(=O)c1ccc2nc(-c3cccnc3)cc(C(=O)NCCCOCC)c2c1,inactive: -6.88%
22,Cc1ccc(NC(=O)COCc2cc(-c3cccs3)on2)cc1Cl,inactive: -17.5%

row,SMILES,activation
1,CCOc1ccccc1CNC(=O)CCn1cccn1,inactive: 0.289%
2,Cc1[nH]c2ccccc2c1C(=O)C(=O)NC1CC(=O)N(c2ccccc2)C1 (stereo unspecified),inactive: -4.79%
3,CCN1/C(=C/C(C)=O)Sc2ccc(OC)cc21,inactive: 0.49%
4,CCc1ccccc1N1C(=O)N(C)c2ccccc2S1(=O)=O,inactive: 13.8%
5,Cc1cccc(-n2c(SCC(=O)Nc3ccccc3C)nc3c(oc4ccccc43)c2=O)c1,inactive: -6.34%
6,COC(=O)c1ccc(NC(=O)CN(c2cccc(C(F)(F)F)c2)S(C)(=O)=O)cc1,inactive: 21.5%
7,COc1cccc(CSc2nc(-c3ccccc3OC)nc3c2Cc2c(CO)cnc(C)c2O3)c1,inactive: -1.46%
8,CCCN(CCC)CCCNC(=O)C1CCN(S(=O)(=O)c2cccc3nsnc23)CC1,inactive: -17.8%
9,CCOc1ccc(S(=O)(=O)N2CCN(c3ccc(C)cc3C)CC2)c2ccccc12,inactive: 20.1%
10,CCCCCCCCCCCCCCCCO,inactive: 3.85%
11,CCN(C(=O)c1ccc2c(=O)n3c(nc2c1)CCCCC3)c1cc(C)ccc1C,inactive: -20%
12,Cc1ccc(C(=O)CC2(O)C(=O)N(Cc3ccccc3)c3ccc(Br)cc32)cc1 (stereo unspecified),inactive: -18.8%
13,CC1CCN(c2ncnc3c2nnn3C)CC1,inactive: -2.12%
14,O=C(Cn1c(=O)n(-c2ccc(Cl)cc2)c(=O)c2oc3ccccc3c21)Nc1ccccc1,inactive: -9.4%
15,O=c1[nH]c2cc(Cl)ccc2c(O)c1-c1ccc(Oc2ccccc2)cc1,inactive: -7.89%
16,CCN(CC)S(=O)(=O)c1nnc(NC(=O)c2ccc(C(C)C)cc2)s1,active: 75.4%
17,O=C(c1ccco1)N1CCN(c2nc3c(Cl)cccc3s2)CC1,inactive: -6.63%
18,Cn1cnc(S(=O)(=O)N2CCC(C(=O)NCc3ccc(F)cc3)CC2)c1,inactive: -12.1%
19,COc1ccc(C2=C(C)C(=O)N(Cc3ccc(C(=O)Nc4cc(C)ccc4C)cc3)S2(=O)=O)cc1,inactive: -1.99%
20,COc1cccc(C(=O)Nc2ccccc2-c2nnc(-c3cc(OC)ccc3Br)o2)c1,inactive: -11.2%
21,Cc1cccc(N2CCN(CCCNC(=O)c3nnc(Cc4c(F)cccc4Cl)o3)CC2C)c1 (stereo unspecified),inactive: -3.37%
22,CCCSS/C(CCO)=C(\C)N(C=O)Cc1cnc(C)nc1N,inactive: -39.7%

row,SMILES,activation
1,COc1cc(CC(=O)O)ccc1O,inactive: 8.61%
2,Cc1nn2c(=O)cc(COC(=O)c3cccc(NC(=O)c4ccc(C(C)(C)C)cc4)c3)nc2s1,inactive: -8.33%
3,COc1cccc(C(=O)Nc2ccc3nc(N4CCC(C)CC4)cc(C)c3c2)c1,inactive: 23.1%
4,O=C(COC(=O)c1cccc(NC(=O)c2ccc(Br)cc2)c1)c1ccc(Br)cc1,inactive: 5.84%
5,CCOC(=O)c1[nH]c2c(c1Cc1ccccc1OC)C(=O)CC(c1ccc(OCC)cc1)C2 (stereo unspecified),inactive: -23.5%
6,COc1ccc(C(=O)CCC(=O)Nc2ccc(OC)c(Cl)c2)cc1,inactive: -14.8%
7,CCN(CC)S(=O)(=O)c1ccc2c(c1)N(CC(=O)Nc1ccc(C)cc1C)C(=O)C1CCCN21 (stereo unspecified),inactive: -28.4%
8,COc1ccccc1N1CCN(c2nc3ccc(C)cc3n3nnnc23)CC1,inactive: -9.29%
9,CC(C)NC(=O)c1ccccc1NC(=O)c1nsc2ccccc12,inactive: 5.24%
10,Cc1ccc(S(=O)(=O)c2nc(S(C)(=O)=O)sc2NCc2ccccc2)cc1,inactive: -22.2%
11,CCOC(=O)c1c(C)oc2nc(C)nc(NCCc3ccc(SC)cc3)c12,inactive: 1.46%
12,COc1cc(NC(=O)Cn2nc(-c3ccc(C)c(C)c3)ccc2=O)cc(OC)c1,inactive: -19.1%
13,COc1ccc(C2=CC(c3cccc(C)c3)n3nnnc3N2)cc1 (stereo unspecified),inactive: -34%
14,COc1ccc(C)cc1NC(=O)CSc1ccc(-c2ccccn2)nn1,inactive: 2.57%
15,CCOC(=O)c1ccc(OC(=O)CCCCCN=C(N)N)cc1,inactive: 20.4%
16,Cc1cccc(NC(=O)c2oc3ccccc3c2NC(=O)c2cc(=O)c3cc(Cl)ccc3o2)c1,inactive: -11.5%
17,COc1ccccc1C(=O)Nc1c(C(=O)N(C)c2ccccc2)sc2nc(C)cc(C)c12,inactive: -17.1%
18,Cn1c(=O)c2sccc2n2c(CCC(=O)NCc3ccccc3Cl)nnc12,inactive: 11.1%
19,COc1ccc(CNC(=O)C2CCN(C(=O)N3CC(C)Oc4ccc(C)cc43)CC2)cc1 (stereo unspecified),inactive: -9.63%
20,CN(Cc1ccccc1)C(=O)C1CCN(S(=O)(=O)c2ccc3nc4c(c(C(=O)O)c3c2)CCCC4)CC1,inactive: -26.9%
